Reference: the supplement of paper PMC10126150
Values marked as one replicate rest on one cluster of the flow cell; about a third of the high ones do not repeat.

Tested on: ATP
Assay: switch fluorescence ratio, 500 uM ATP over buffer (Cy3 cluster intensity, sum of 5 cycles each) (fold (ratio)); higher = stronger signal-on switching upon ATP binding; sequences stand for … in TCGTCGGCAGCGTCAGATGTGTATAAGAGACAGTTTTTTTTTTTTTTTTTTTTTTTTT…TC
Conditions: aptamer strand: ATP DNA aptamer (quencher-CACCTGGGGGAGTATTGCGGAGGAAGG + anchor), 100 nM annealed; ATP concentration: 500 uM; one replicate
Method in brief: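 Per cluster, summed Cy3 intensity from the target cycles was divided by that from the buffer cycles to give the fluorescence ratio, then averaged per switch-domain sequence. Clusters outside 100-1000 RFU were excluded. The Cy3-labelled switching-strand clusters, on a modified Illumina MiSeq flow-cell, were annealed to 100 nM quencher-labelled ATP aptamer and imaged in selection buffer, then after 15 min with 500 uM ATP at 22 °C, for five cycles with NaOH stripping and re-annealing between them.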
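Note: ATP exposure 15 min at 22 °C before imaging.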

Sequence | switch fluorescence ratio
TGAAAAAAGT | 1
ACTTGAAAAA | 0.952
ATTTATGCT | 0.948
GCCGCTAAAA | 5.45
TTAAGTTGCG | 1.03
AGGGAGCGGA | 0.997
AGAGCCCCA | 1.01
ACGCTTAT | 1.1
GCATGTCCTC | 1.04
TAACGGCGAA | 1.03
CCTTTGAGAG | 0.989
ACATCCAGTA | 0.958
TTTCACGCTA | 1.35
TTATCAATCG | 1.02
AAGTACGATG | 1.18
GGTTACGGCT | 1.02
TAGCTATCGT | 0.996
CAATATTCCT | 1.22
AACTCGGGAT | 1.01
GAAGGCTGCT | 1.04
AGCTGTCGGT | 1.01
TATATGATAG | 0.995
TTTATTTCGT | 1.01
TAGATACACT | 1.01
GCACGGTGTG | 1
CATAGCCATT | 1.04

Sequence | switch fluorescence ratio
TCCCCTGCCA | 1.32
CGACCCCGAC | 1.58
TAGGTCTCGG | 1.02
TAGTGGACCG | 1.08
CCAAACCACA | 1.08
GCACTAACTG | 1.05
TCGTTATGCA | 1.06
CGGCGGTAGC | 0.94
TGGAAATTA | 0.978
AATTGATCTC | 0.983
GGCATTTAAG | 1
TTTGCAGTTA | 1.04
ACCTAACACC | 1.35
GAGTTGGTAC | 1.05
AATTGTGTTC | 0.975
GTTACGTCCA | 1.02
TTTTGGAGCT | 1.01
TGGGTTCG | 1.05
TTCGTTAATC | 1.01
AAATCACAAC | 0.984
CCGGATCCGG | 0.965
GGATTGCAAA | 0.928
TGGCCAGTGG | 1.02
TCGTGATTGA | 1.01
ATTATGTGCC | 1
CCACAAAAAT | 1.04

Sequence | switch fluorescence ratio
ATTATTTTCA | 1.04
TTAGCAGTTT | 0.977
TCTAACACAG | 1.01
ACCCAGGGGT | 2.92
TGTCCTAAAC | 1.02
ATGATTGGAA | 0.957
TAGGCTACTT | 0.979
CCATCACTAC | 1.86
AAATTGGCGC | 0.977
GCGAGGGTAA | 1.03
TTATGCCTTA | 1.02
TAGTTACAC | 1.02
TTTCCTAATG | 1.02
CTAAACTCGC | 1.05
GATTATGAA | 0.988
GGTGGTTCCG | 0.978
AGGAGTATGC | 0.975
TCTGCACGTT | 1.06
TTAGTTAGCA | 1.02
CTGGTCGCGC | 1.05
ATTTTCCGGG | 1.05
TTGGTATCAG | 1.01
AGCTATGGGC | 1.03
GGCGTAACCA | 0.981
CTGCTTTATT | 1.02
CGCATCCTTC | 1.48

Sequence | switch fluorescence ratio
TGGAGAATGT | 0.984
TTGGAATG | 1.02
TGTTTGAAAG | 0.968
TATGTCACTC | 1.07
GCATTATCCC | 1.53
TTCAGCTGTA | 1.03
GCATAGAGCC | 0.986
TCATAAGGTT | 1.46
GGCGATTAAT | 1.08
TCTCGATTCA | 1.07
TAGCGGGTAT | 1.04
CATATGAAG | 1.02
GAGAGACACT | 0.978
GCAGCTACCG | 1.07
AGGTATACGT | 1.03
AGGCTCGGTA | 0.958
TAGACGAGAA | 0.994
ACCCTGCCCA | 1.03
AGCCAGAAAG | 1.12
ATACCGGATC | 1.09
TAATGGCCGG | 1.01
AGCGAAGCTT | 0.952
CAAAGCATTG | 1.03
GAATTTTAGA | 1.06
GCCCAACAG | 1.04
AAGGAGACTC | 1.03

Sequence | switch fluorescence ratio
GTCGGAAACG | 1.21
CTAGCTGTCA | 1
GGGTGGCAAA | 1.01
CAGGATAGGA | 1.18
GCTTTGGGA | 1.04
ATGCCGCTGG | 0.995
GCTTAGATAA | 1.01
TCACTCCTAT | 1.07
CATGTAATGC | 1.28
TAAGATAAGG | 0.991
CGGATGTGCT | 0.963
GCTCCGGCTA | 2.97
TGTCACTTC | 1
TGGTTACTT | 1.02
ACGTTGGCCA | 0.995
TTACCAAAAT | 1.05
GCCTCGACAG | 0.989
GTATTCTGTG | 1.05
GAATGTTGTG | 1.02
GAGTAGCAGG | 0.992
TTGCAACGGG | 1.02
AACTACGTTA | 1.06
GAGAACAATT | 0.96
CGGATGGGTT | 0.963
CAACGCTAGA | 1.26
TTGAGTATAT | 1.03

Sequence | switch fluorescence ratio
TTACGCTATA | 1.65
CCGGTTGGAC | 1.56
GTCCGGGTGA | 1.93
AATGCAGGGT | 1.02
GGATGCATAC | 1.84
TATATATACT | 1.04
CCTAATAATT | 1
GGCGACCAGG | 1.03
CACGAGAGAG | 1.01
ATATTGGAAA | 0.95
CGAAAATGCA | 0.961
CGTAGTTAGT | 0.98
GTCTGCTGTA | 1.03
AGGATGATAA | 0.944
TAGACTTCCG | 1.03
AGTAACGTTG | 1.02
CAAGCCTCCC | 1.96
AGAAGGAATC | 1.02
TATGTCACC | 1.13
GCCTAAGGTC | 0.953
AGGAGGAAAT | 1.03
AAAAGTAGGC | 1.07
CGCTAGACTA | 1.66
CAGTCGGTGC | 0.998
CTGACTGTCC | 1.05
CTCGGAATAG | 3.78

Sequence | switch fluorescence ratio
ATCGCTTGAA | 0.983
CTTACTACGG | 1.32
ATTACGTAGG | 1.03
GTGATGACGC | 1.19
TCCCACATAA | 1.09
ATACACTGAG | 1.05
TTTGTTGATG | 0.987
TCAGAGATGG | 0.985
ACCACCCCAC | 1.32
GGCGGTGACT | 1.03
AACGGTGGCG | 1.04
CGTGTCAAAC | 1.09
CACAACACAA | 1.07
TCCACGAATT | 1.03
AACGTGACT | 1.33
TTCCGTAACC | 1.5
CGTAGGATGG | 1.05
AGAATCGGGA | 0.965
GCATTGGAGA | 1.03
CGAATTCGTA | 1.02
GAAAACCAAT | 1.02
TTCATTAGTT | 1.02
TATGTCAGCC | 1.02
AAGTGCCGTG | 0.992
ACTGTGGTTT | 1.03
ATAAGCCAGA | 1

Sequence | switch fluorescence ratio
CTCCGGATGT | 4.08
TTTAACCAG | 1.14
TACTTAGAGC | 1.08
TCGGTGGTCT | 0.992
GTTCTGTTTG | 1.02
TAGTGAACTG | 0.958
ACCTAGGCC | 0.98
TAAGTAAGAC | 1.7
ATTTACACTG | 0.962
CATGTGGGCC | 1.02
ATCCCATACA | 1.02
CCGTTTTTTC | 1.04
AACAACTTGG | 1.02
AAGGACTACC | 1.07
CCCGACACTC | 1.74
TTGTGTGGT | 1.04
TTTATTCCAA | 1.01
CAGGCTAAAA | 1
TTCTTGTTTG | 0.957
